Self-cleavage data for 39 variants are collected here from the RNAGym collection of RNA variant scans (doi:10.7554/elife.90254).

B1: LINE1-full (parent)
chain: UACGUAGGUGGUUUUCCCCUGAUAGUGCUAAGGGGGCCUGGAAGUUUGGACUGGGCAGAGCUCAACACAGCGUGGCAAAGUGGCUGUGGCUAGACUGCCUCUCUGGAUUCCUCGUCACUCAGCAGGGCAUCUCUGAGAGAAAUGCC

Read counts are not given, so values of variants with three or more changes are uncertain.

Variants of B1 are the subject of this data set. The experiment in a line: self-cleavage, relative activity (ratio to wild type); higher = more cleavage; in vitro, sequencing; the parent is a self-cleaving ribozyme.
On to UACGUAGGUGGUUUUCCCCUGAUAGUGCUAAGGGGGCCUGGAAGUUUGGACUGGGCAGAGCUCAACACAGCGUGGCAAGGUGGCCGUGGCUAGACUGCCUCUCUGGAUUCCUCGUCACUCAGCAGGGCAUCUCUGAAAGAAAUGCC [A79G U85C G137A], for which the self-cleavage is 0.22.
The value for UACGUAGGUGGUUUUCCCCUGAUAGUGCUAAGGGGGCCUGGAAGUUUGGACUGGGCAGAGCUCAACACAGCGUGGCAUAGUGGCUGUGGCUAGACUGCCUCUCAGGAUUCCUCGUCGCUCAGCAGGGCAUCUCUGAGGGAAAUGCC [A78U U104A A117G A138G] was 1.89; that for UACGUAGGUGGUUUUCCCCUGAUAGUGCUAAGGGGGCCUGGAAGUUUGGACUGGGCAGAGCUCAACACAGCGUGGCAAGGUGGCCGUGGCUAGACUGCCUCUCUGGAUUCCUCGUCACUCAGCAGGGCAUCUCUGAGGGAAAUGCC [A79G U85C A138G] was 0.3.
The value for UACGUAGGUGGUUUUCCCCUGAUAGUGCUAAGGGGGCCUGGAAGUUUGGACUGGGCAGAGCUCAACACAGCGUGGCAGAGUGGCUGUGGCUAGACUGCCUCUCUGGAUACCUCGUCACUCAGCAGGGCAUCUCUGAGAGGAAUGCC [A78G U109A A140G] was 1.16.
The value for UACGUAGGUGGUUUUCCCCUGAUAGUGCUAAGGGGGCCUGGAAGUUUGGACUGGGCAGAGCUCAACACAGCGUGGCAUAGUGGCUGUGGCUAGGCUGCCUCUCUGGAUUCCUCGUCACUCGGCAGGGCAUCUCUGAGAGAAAUGCC [A78U A94G A121G] was 0.52; that for UACGUAGGUGGUUUUCCCCUGAUAGUGCUAAGGGGGCCUGGAAGUUUGGACUGGGCAGAGCUCAACACAGCGUGGCAAGGAGGCUGUGGCUAGACUGCCUCUCUGGAUUCCUCGUCACUCAGCAGGGCAUCUCUGCGAGAAAUGCC [A79G U81A A136C] was 0.3; that for UACGUAGGUGGUUUUCCCCUGAUAGUGCUAAGGGGGCCUGGAAGUUUGGACUGGGCAGAGCUCAACACAGCGUGGCAUAGUGGCUGUGGCAAGACUGCCUCUCUGGAUUCCUCGUCACUCAGCAGGGCACCUCUGAGAGAAAUGCC [A78U U91A U130C] was 1.34.
As for UACGUAGGUGGUUUUCCCCUGAUAGUGCUAAGGGGGCCUGGAAGUUUGGACUGGGCAGAGCUCAACACAGCGUGGCAAGGUGGCUGUGGCUAGACUGCCUCUCUGGAUUCCUCGUCACUCAGCGGGGCAUCUCUGAGGGAAAUGCC [A79G A124G A138G], the self-cleavage is 0.57.
With UACGUAGGUGGUUUUCCCCUGAUAGUGCUAAGGGGGCCUGGAAGUUUGGACUGGGCAGAGCUCAACACAGCGUGGCAUAGAGGCUGUGGCUAGACUGCCUCUCUGGAUUCCUCGUCACUCAGCAGGGCAACUCUGAGAGAAAUGCC [A78U U81A U130A], the self-cleavage stood at 2.88.
To UACGUAGGUGGUUUUCCCCUGAUAGUGCUAAGGGGGCCUGGAAGUUUGGACUGGGCAGAGCUCAACACAGCGUGGCAAGGUAGCUGUGGCUAGACUGCCUCUCUGGAUUCCUCGUCACUCAGCAGGGCAUCUCUGAGGGAAAUGCC [A79G G82A A138G] belongs 1.78; to UACGUAGGUGGUUUUCCCCUGAUAGUGCUAAGGGGGCCUGGAAGUUUGGACUGGGCAGAGCUCAACACAGCGUGGCAAGGCGGCUGUGGCUAGACUGCCUCUCUGGAUUCCUCGUCACUCAGCAGGGCAUCUCUGAGAUAAAUGCC [A79G U81C G139U], 0.76; to UACGUAGGUGGUUUUCCCCUGAUAGUGCUAAGGGGGCCUGGAAGUUUGGACUGGGCAGAGCUCAACACAGCGUGGCAAGGAGGCUGAGGCUAGACUGCCUCUCUGGGAUCCUCGUCACUCAGCAGGGCAUCUCUGAGAGAAAUGCC [A79G U81A U87A A107G U108A], 0.23.
To UACGUAGGUGGUUUUCCCCUGAUAGUGCUAAGGGGGCCUGGAAGUUUGGACUGGGCAGAGCUCAACACAGCGUGGCAGAGUGGCUGUGGCUAGACUGCCUCUCUGGAUUCCCCGUCACUCAGCAGGGCAACUCUGAGAGAAAUGCC [A78G U112C U130A] belongs 1.75; to UACGUAGGUGGUUUUCCCCUGAUAGUGCUAAGGGGGCCUGGAAGUUUGGACUGGGCAGAGCUCAACACAGCGUGGCAAGGUGGCCGUGGCUAGACUGCCUCUCUGGAUUCCUCGUCACUCAGCAGGGCAUCUCUGAGAGAAACGCC [A79G U85C U143C], 0.29.
To UACGUAGGUGGUUUUCCCCUGAUAGUGCUAAGGGGGCCUGGAAGUUUGGACUGGGCAGAGCUCAACACAGCGUGGCAGAGUGGCUGUGGCUAGACUGCCUCUCUGGAUUCCUCGUCACCCAGCAGGGCAUCUCAGAGAGAAAUGCC [A78G U119C U134A] belongs 1.01; to UACGUAGGUGGUUUUCCCCUGAUAGUGCUAAGGGGGCCUGGAAGUUUGGACUGGGCAGAGCUCAACACAGCGUGGCAAGGUGGCUGUGGCUAGGCUGCCUCUCUGGAUUCCUCGUCACUCAGCAGGGCAUCUCCGAGAGAAAUGCC [A79G A94G U134C], 0; to UACGUAGGUGGUUUUCCCCUGAUAGUGCUAAGGGGGCCUGGAAGUUUGGACUGGGCAGAGCUCAACACAGCGUGGCAAGGUGGCUGUGGCUAGACUGCCUCUCUGGAUUCCUCGUCACUCAGCAGGGCAUCUAUGGGAGAAAUGCC [A79G C133A A136G], 1.25.
UACGUAGGUGGUUUUCCCCUGAUAGUGCUAAGGGGGCCUGGAAGUUUGGACUGGGCAGAGCUCAACACAGCGUGGCAGAGUGGCUGUGGCUAGACUGCCUCUCCGGAUUCCUCGUCACUCAGCAGGGCAUCUCUGAGAGUAAUGCC [A78G U104C A140U]: the self-cleavage is 3.
The value for UACGUAGGUGGUUUUCCCCUGAUAGUGCUAAGGGGGCCUGGAAGUUUGGACUGGGCAGAGCUCAACACAGCGUGGCAAGGUGGCUGUGGCUAGACUGCCCCUCUGGAUUCCUCGUCACUCAGCAGGGCAUCUCUGAGAGAGAUGCC [A79G U100C A141G] was 1.41; that for UACGUAGGUGGUUUUCCCCUGAUAGUGCUAAGGGGGCCUGGAAGUUUGGACUGGGCAGAGCUCAACACAGCGUGGCAAGGUGGCUGUGGCUAGACUGCCUCUCUGGAUUCCUCGUCACUCAGCAGGGCAUCUCUGAGAGAUACGCC [A79G A141U U143C] was 1.77.
To UACGUAGGUGGUUUUCCCCUGAUAGUGCUAAGGGGGCCUGGAAGUUUGGACUGGGCAGAGCUCAACACAGCGUGGCAAGGUGGCCGUGGCUAGACUGCCUCUCUGGAUUCCUCGUCACUCAGCAGGGCAUCUCUGGGAGAAAUGCC [A79G U85C A136G] belongs 0.16; to UACGUAGGUGGUUUUCCCCUGAUAGUGCUAAGGGGGCCUGGAAGUUUGGACUGGGCAGAGCUCAACACAGCGUGGCAAGGUGGCUGUGGCUAGACAGCCUCUCUGGAUUCCUCGUCACUCAGCAGGGCAUCUCUGAGAGGAAUGCC [A79G U96A A140G], 0.09; to UACGUAGGUGGUUUUCCCCUGAUAGUGCUAAGGGGGCCUGGAAGUUUGGACUGGGCAGAGCUCAACACAGCGUGGCAGAGUGGCUGUGGCUAGACUGCCUCCCUGGAUUCCUCGUAACUCAGCAGGGCAUCUCUGAGAGAAAUGCC [A78G U102C C116A], 0.75.
The value for UACGUAGGUGGUUUUCCCCUGAUAGUGCUAAGGGGGCCUGGAAGUUUGGACUGGGCAGAGCUCAACACAGCGUGGCAAGGAGGCUGUGGCUAGAUUGCCUCUCUGGAUUCCUCGUCACUCAGCAGGGCAUCUCUGAGAGAAAUGCC [A79G U81A C95U] was 0.33.
On to UACGUAGGUGGUUUUCCCCUGAUAGUGCUAAGGGGGCCUGGAAGUUUGGACUGGGCAGAGCUCAACACAGCGUGGCAAGGUGACUGUGGCUAGUCUGCCUCUCUGGAUUCCUCGUCACUCAGCAGGGCAUCUCUGAGAGAAAUGCC [A79G G83A A94U], for which the self-cleavage is 0.22.
To UACGUAGGUGGUUUUCCCCUGAUAGUGCUAAGGGGGCCUGGAAGUUUGGACUGGGCAGAGCUCAACACAGCGUGGCAGAGUGGCUGUGGCUAGACUGCCUCUCUGGAUUCCGCGUCACUCAGCAGGGCAUCCCUGAGAGAAAUGCC [A78G U112G U132C] belongs 2.51; to UACGUAGGUGGUUUUCCCCUGAUAGUGCUAAGGGGGCCUGGAAGUUUGGACUGGGCAGAGCUCAACACAGCGUGGCAAGGUGGCAGUGGCUAGACAGCCUCUCUGGAUUCCUCGUCACUCAGCAGGGCAUCUCUGAGAGAAAUGCC [A79G U85A U96A], 0.
To UACGUAGGUGGUUUUCCCCUGAUAGUGCUAAGGGGGCCUGGAAGUUUGGACUGGGCAGAGCUCAACACAGCGUGGCAAGGUGACUGUGGCUAGACUGCCUCUCUGGAUUCCUUGUCACUCAGCAGGGCAUCUCUGAGAGAAAUGCC [A79G G83A C113U] belongs 0.65.
The value for UACGUAGGUGGUUUUCCCCUGAUAGUGCUAAGGGGGCCUGGAAGUUUGGACUGGGCAGAGCUCAACACAGCGUGGCAAGGUGGCUGCGGCUAGACUGCCUCUCAGGAUUCCUCGUCACUCAGCAGGGCAUCUCUGAGAGGAAUGCC [A79G U87C U104A A140G] was 0.
In the case of UACGUAGGUGGUUUUCCCCUGAUAGUGCUAAGGGGGCCUGGAAGUUUGGACUGGGCAGAGCUCAACACAGCGUGGCAAGGUGGCUGUGGCUAGACUGCCACUCUGGAUUCCUCGUCACUCAGCAGGGCUUCUCUGAGAGAAAUGCC [A79G U100A A129U], the self-cleavage was determined as 1.15.
In the case of UACGUAGGUGGUUUUCCCCUGAUAGUGCUAAGGGGGCCUGGAAGUUUGGACUGGGCAGAGCUCAACACAGCGUGGCAAGGUGGCUGUGGCUAGACUGCCACUCUGGAUUCCUCGUCACUCAGCAGGGCGUCUCUGAGAGAAAUGCC [A79G U100A A129G], the self-cleavage is 0.49.
For UACGUAGGUGGUUUUCCCCUGAUAGUGCUAAGGGGGCCUGGAAGUUUGGACUGGGCAGAGCUCAACACAGCGUGGCAAGGUGGCUGUGGCUAGUCUGCCUCACUGGAUUCCUCGUCACUCAGCAGGGCAUCUCUGAGAGAAAUGCC [A79G A94U U102A], the self-cleavage stood at 0.4.
To UACGUAGGUGGUUUUCCCCUGAUAGUGCUAAGGGGGCCUGGAAGUUUGGACUGGGCAGAGCUCAACACAGCGUGGCAAGGUGGCUGUGGCUAGACUGCCUCUCUGGAUUCCUCGUCACUCAGCAGAGCAUCUCAGAGAGAAAUGCC [A79G G126A U134A] belongs 1.34.
The value for UACGUAGGUGGUUUUCCCCUGAUAGUGCUAAGGGGGCCUGGAAGUUUGGACUGGGCAGAGCUCAACACAGCGUGGCAAGGUGGCUGUGGCUAGACUGCCUCUCUGGAUUCCUCGUCACUCAGCAGGGCAUCUAUGAGAGAAGUGCC [A79G C133A A142G] was 0.65; that for UACGUAGGUGGUUUUCCCCUGAUAGUGCUAAGGGGGCCUGGAAGUUUGGACUGGGCAGAGCUCAACACAGCGUGGCAAGGUGGCUGUGGCUAGACUGCCUCUCUGGAUUCCUCGUCACUCAGCAGGGCGUCUCUGAGAGAGAUGCC [A79G A129G A141G] was 1.68.
To UACGUAGGUGGUUUUCCCCUGAUAGUGCUAAGGGGGCCUGGAAGUUUGGACUGGGCAGAGCUCAACACAGCGUGGCAUAGUGGCUGUGGCUAGACUGCCUAUCUGGAUUCCUCGUCACUCAGCAGGGCAUCUCUGAGGGAAAUGCC [A78U C101A A138G] belongs 1.97.
As to UACGUAGGUGGUUUUCCCCUGAUAGUGCUAAGGGGGCCUGGAAGUUUGGACUGGGCAGAGCUCAACACAGCGUGGCAGAGUGGCUGUGGCUAGACUGCCUCUCUGGACUCCUCGUCACUCAGCAGGGCAUCCCUGAGAGAAAUGCC [A78G U108C U132C], the self-cleavage amounted to 0.84.
The value for UACGUAGGUGGUUUUCCCCUGAUAGUGCUAAGGGGGCCUGGAAGUUUGGACUGGGCAGAGCUCAACACAGCGUGGCAAGGUGGCAGUGGCUAGGCUGCCUCUCUGGAUUCCUCGUCACUCAGCAGGGCAUCUCUGAGAGAAAUGCC [A79G U85A A94G] was 0.27; that for UACGUAGGUGGUUUUCCCCUGAUAGUGCUAAGGGGGCCUGGAAGUUUGGACUGGGCAGAGCUCAACACAGCGUGGCAAGGCGGCUGUGGCUAGACUGCCUCUCUGGAUUCCUCGUCACUCAGCAGGGCAUCUCUGAGAGGAAUGCC [A79G U81C A140G] was 0.
